Laboratory results published in paper PMC4336329 (PLoS ONE, 2015).
Hit rate of the full screen: of about 310,000 compounds, about 2,200 (0.71%) showed an effect of 50% or more. Effects have a minus sign here. The list shows a part of the results.

Each compound was assayed against human ether-à-go-go-related gene (hERG) potassium channel (human, UniProt Q12809) (assay: primary screen, population patch clamp on CHO cells stably expressing hERG).
human ether-à-go-go-related gene (hERG) potassium channel, sequence (Q12809 whole entry, looked up): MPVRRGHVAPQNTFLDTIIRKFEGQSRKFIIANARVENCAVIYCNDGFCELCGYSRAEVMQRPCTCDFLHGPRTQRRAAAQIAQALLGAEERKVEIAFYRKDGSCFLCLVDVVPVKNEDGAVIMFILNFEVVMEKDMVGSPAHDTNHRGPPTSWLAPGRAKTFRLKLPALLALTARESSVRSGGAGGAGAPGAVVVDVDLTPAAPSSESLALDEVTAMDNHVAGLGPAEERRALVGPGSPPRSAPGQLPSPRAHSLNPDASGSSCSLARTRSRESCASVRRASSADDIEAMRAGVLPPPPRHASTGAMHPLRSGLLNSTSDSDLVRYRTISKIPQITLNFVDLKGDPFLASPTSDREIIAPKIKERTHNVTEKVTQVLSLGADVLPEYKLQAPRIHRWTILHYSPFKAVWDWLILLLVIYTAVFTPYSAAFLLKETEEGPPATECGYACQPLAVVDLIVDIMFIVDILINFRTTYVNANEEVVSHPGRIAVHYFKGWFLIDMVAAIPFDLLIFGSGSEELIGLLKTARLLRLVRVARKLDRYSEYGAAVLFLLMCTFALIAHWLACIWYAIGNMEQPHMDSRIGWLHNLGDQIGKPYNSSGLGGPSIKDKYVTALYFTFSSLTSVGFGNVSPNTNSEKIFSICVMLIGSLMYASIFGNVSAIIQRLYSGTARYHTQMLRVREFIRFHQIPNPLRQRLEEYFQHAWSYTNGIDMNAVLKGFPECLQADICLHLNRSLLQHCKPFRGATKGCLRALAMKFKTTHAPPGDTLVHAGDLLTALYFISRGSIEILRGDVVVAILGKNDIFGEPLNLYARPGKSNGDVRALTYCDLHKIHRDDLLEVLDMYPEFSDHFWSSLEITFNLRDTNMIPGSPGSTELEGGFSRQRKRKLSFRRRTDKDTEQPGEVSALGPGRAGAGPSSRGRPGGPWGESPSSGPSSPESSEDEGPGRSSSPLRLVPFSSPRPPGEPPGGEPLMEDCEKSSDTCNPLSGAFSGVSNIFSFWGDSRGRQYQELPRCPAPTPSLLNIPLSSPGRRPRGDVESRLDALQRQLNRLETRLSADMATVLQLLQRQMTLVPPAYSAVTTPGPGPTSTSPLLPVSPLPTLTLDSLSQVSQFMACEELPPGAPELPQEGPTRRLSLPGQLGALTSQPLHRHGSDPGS

SMILES | hERG current change (%, negative = inhibition) at 1uM [%]
Cc1ccc(SCCC(=O)Nc2cccnc2)cc1 | 14.5
CC(NC(=O)OCc1ccccc1)C(=O)OCN1C(=O)c2ccccc2C1=O (centres unmarked) | 8.71
N#C/C(N)=C(/C#N)N=Cc1cccc(Cl)c1 | 6.04
CCOc1ccccc1C1NC(=O)NC(C)=C1C(=O)OC1CCCC1C (centres unmarked) | -11.9
O=C1OC(=O)c2c(Br)c(Br)c(Br)c(Br)c21 | 14.9
O=C(NCc1ccc2c(c1)OCO2)C(c1ccco1)N(C(=O)c1csnn1)c1ccccc1 (centres unmarked) | -3.53
S=c1[nH]nc(-c2cccnc2)n1-c1ccccc1 | 13.3
OC1NC(=S)N(c2ccccc2)C1O (centres unmarked) | 1.2
COc1cccc(NC2CC(=O)N(CCc3ccccc3)C2=O)c1 (centres unmarked) | 9.11
C=CCN1C(=O)CSc2ccc(C(=O)NCc3ccc(F)cc3)cc21 | 4.23
O=C(O)c1cc(N/N=C2/CC(c3ccccc3)Oc3ccccc32)ccc1Cl (centres unmarked) | 13.3
Cn1c(-c2ccccc2O)cc2ccccc21 | 9.74
O=C(Nc1ccnn1C1CCN(C(=O)c2cc(Cl)ccc2F)CC1)C1CCOC1 (centres unmarked) | 25
CCc1nnc(NC(=O)CSc2nnc(-c3ccc(OC)cc3)n2C)s1 | 12.9
O=C1CN(C(=O)COC(=O)c2ccccc2NCc2ccco2)c2ccccc2N1 | 6.95
CCc1ccc(N2CC(C(=O)NC3CC3)CC2=O)cc1 (centres unmarked) | 11.8
Cc1cccc(NC(=O)c2ccccc2NC(=O)Cc2ccccc2)c1C | 9.55
COC(=O)c1ccc(NC(=S)Nc2ccccn2)cc1 | 22.6
CCNS(=O)(=O)c1ccc2nc(NC(=O)c3cccnc3)sc2c1 | 8.8
Cc1cccc(NC(=O)NC2CCCc3ccccc32)c1 (centres unmarked) | 14.3

SMILES | hERG current change (%, negative = inhibition) at 1uM [%]
CCN(C(=O)CSc1nnc(-c2cccs2)n1N)c1c(N)n(Cc2ccccc2)c(=O)[nH]c1=O | 8.81
CCn1c(COC(=O)CNC(=O)c2ccccc2F)nc2cc(S(=O)(=O)N(C)C)ccc21 | 10.5
Cc1ccccc1-n1c(C)cc(/C=N/NC(=O)c2ccncc2)c1C | 4.1
Cc1ccc(OCCCC(=O)N(C)CC(=O)Nc2ccccc2Br)cc1 | 9.79
Cc1cc(N2CCN(C(=O)c3ccco3)CC2)n2nc(C)nc2n1 | -14.7
C[C@@H](O)CC(=O)[O-].[Na+] | 1.5
Cc1ccc(C)c(SCC(=O)NC(=O)NC2CCCC2)c1 | 6.35
NS(=O)(=O)c1ccc(S(=O)(=O)N2CCCC2)cc1 | -1.12
CC(C)C(=O)NC(=S)Nc1ccccc1C(=O)Nc1ccccc1 | 16.3
c1ccc(-c2nc3ccccc3c3nncn23)cc1 | 9.16
CC(=O)c1ccc(NC(=O)CSc2nc(=O)n(CCN3CCOCC3)c3c2CCC3)cc1 | 6.41
O=C(NNC(=O)c1ccc(S(=O)(=O)N2CCCCC2)cc1)c1ccccc1 | 10.3
O=C1c2ccsc2SCCN1Cc1cccc(Cl)c1 | 8.86
COc1ccccc1N=NC1C(=O)N(C(N)=S)N=C1C (centres unmarked) | 15.1
Cc1ccc(CNCCc2ccccc2F)cc1.Cl | -8.57
COc1cc(/C=C2/SC(=S)N(CC(=O)Nc3cccnc3)C2=O)cc(OC)c1OC | 8.28
CCN(CC)S(=O)(=O)c1ccc(NC(=O)c2ccc(OCC3CCCO3)cc2)cc1 (centres unmarked) | 14.6
CCOC(=O)c1cc(-c2ccc(OC)cc2)n(CCC(=O)NCCN2CCC(C)CC2)c1C | -9.33
COc1cc(/C=N/NC(=O)C(C)Nc2n[nH]c(=O)[nH]c2=O)cc(OC)c1O (centres unmarked) | 13.5
CCOc1ccccc1CNCCOC.Cl | 0.0956

SMILES | hERG current change (%, negative = inhibition) at 1uM [%]
CCC(C)Cn1c(C(C)C)nc2ccccc21 (centres unmarked) | 2.84
CCOc1c(Cl)cc(CNC(C)(C)CC(C)(C)C)cc1OC.Cl | -5.44
COc1ccc(C(=O)Nc2ccc(S(=O)(=O)Nc3cnc4ccccc4n3)cc2)cc1 | 15.1
O=C(NC(=S)NCCCN1CCOCC1)c1cccc2ccccc12 | 9.38
CC(C)n1cc(CN2CCC(C(=O)Nc3ccc(Oc4ccccc4F)cc3)CC2)cn1 | -46.2
Nn1cc(-c2ccccc2)nc1SCC(=O)N1CCN(S(=O)(=O)c2ccc3ccccc3c2)CC1 | 0.0218
O=C(NCC(=O)N1CCCC1)c1ccccc1F | 14.6
Cc1ccn2cc(CSc3ccccc3)nc2c1 | 3.94
CCOc1ccc(C(=O)N(Cc2ccc(OC)cc2)Cc2cc3cc(OC)ccc3[nH]c2=O)cc1 | -3.38
Cc1cccc(OCC(=O)N/N=C/c2ccc(N(C)C)cc2)c1 | -2.37
CNc1nc(Nc2ccc(Br)cc2)nc(N)c1[N+](=O)[O-] | 10
COC(=O)Cc1csc(N)n1.Cl | 8.39
CCOc1ccccc1N(CC(=O)Nc1ccc(S(=O)(=O)N2CCOCC2)cc1)S(C)(=O)=O | 6.93
c1ccc2sc(NC3=NCN(C4CCCCC4)CN3)nc2c1 | -8.87
COc1ccc(-c2nnc(SCC(C)C)o2)cc1 | 13.3
COc1ccc(N2CCC(CNC(=S)Nc3cccc(OC)c3)C2)cc1 (centres unmarked) | 8.46
O=C(COC(=O)c1n[nH]c2ccccc12)NCCc1ccc(Cl)cc1 | 7.88
CCOC(=O)C1CCCN(C(=O)Cn2nc(C)c3c(C)n(-c4ccccc4)nc3c2=O)C1 (centres unmarked) | 12.7
O=C(CC1C(=O)NCCN1Cc1cccc(C(F)(F)F)c1)NCCc1cnccn1 (centres unmarked) | 15.7
